Patent US20260008835A1 (SHANGHAI REGENELEAD THERAPIES, published 2026)

T1: Human VEGF-A protein (human, UniProt P15692-4 27-191, limits assumed)
T1 sequence (looked up): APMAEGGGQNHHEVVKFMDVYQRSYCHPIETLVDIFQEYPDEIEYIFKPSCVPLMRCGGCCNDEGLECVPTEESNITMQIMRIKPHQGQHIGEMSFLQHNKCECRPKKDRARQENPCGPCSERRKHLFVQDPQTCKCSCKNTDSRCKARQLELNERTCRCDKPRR

B1: PR1148 (R1D2-R2D3-linker-R2D2 (C162V)-R2D3 (L277R/L289Y)-Fc) (Fc fusion)
chain: SDTGRPFVEMYSEIPEIIHMTEGRELVIPCRVTSPNITVTLKKFPLDTLIPDGKRIIWDSRKGFIISNATYKEIGLLTCEATVNGHLYKTNYLTHRQTNTIIDVVLSPSHGIELSVGEKLVLNCTARTELNVGIDFNWEYPSSKHQHKKLVNRDLKTQSGSEMKKFLSTLTIDGVTRSDQGLYTCAASSGLMTKKNSTFVRVHEKGGGGSSPFIASVSDQHGVVYITENKNKTVVIPCLGSISNLNVSLVARYPEKRFVPDGNRISWDSKKGFTIPSYMISYAGMVFCEAKINDESYQSIMYIVVVVGYRIYDVVLSPSHGIELSVGEKLVLNCTARTELNVGIDFNWEYPSSKHQHKKLVNRDRKTQSGSEMKKFYSTLTIDGVTRSDQGLYTCAASSGLMTKKNSTFVRVHEK[human IgG1 Fc with changes not printed]
B2: PR1143 (R1D2-R2D3-linker-R2D2 (C162V)-R2D3 (R275L)-Fc) (Fc fusion)
chain: SDTGRPFVEMYSEIPEIIHMTEGRELVIPCRVTSPNITVTLKKFPLDTLIPDGKRIIWDSRKGFIISNATYKEIGLLTCEATVNGHLYKTNYLTHRQTNTIIDVVLSPSHGIELSVGEKLVLNCTARTELNVGIDFNWEYPSSKHQHKKLVNRDLKTQSGSEMKKFLSTLTIDGVTRSDQGLYTCAASSGLMTKKNSTFVRVHEKGGGGSSPFIASVSDQHGVVYITENKNKTVVIPCLGSISNLNVSLVARYPEKRFVPDGNRISWDSKKGFTIPSYMISYAGMVFCEAKINDESYQSIMYIVVVVGYRIYDVVLSPSHGIELSVGEKLVLNCTARTELNVGIDFNWEYPSSKHQHKKLVNLDLKTQSGSEMKKFLSTLTIDGVTRSDQGLYTCAASSGLMTKKNSTFVRVHEK[human IgG1 Fc with changes not printed]
B3: PR1141 (R1D2-R2D3-linker-R2D2 (C162V)-R2D3 (N274F)-Fc) (Fc fusion)
chain: SDTGRPFVEMYSEIPEIIHMTEGRELVIPCRVTSPNITVTLKKFPLDTLIPDGKRIIWDSRKGFIISNATYKEIGLLTCEATVNGHLYKTNYLTHRQTNTIIDVVLSPSHGIELSVGEKLVLNCTARTELNVGIDFNWEYPSSKHQHKKLVNRDLKTQSGSEMKKFLSTLTIDGVTRSDQGLYTCAASSGLMTKKNSTFVRVHEKGGGGSSPFIASVSDQHGVVYITENKNKTVVIPCLGSISNLNVSLVARYPEKRFVPDGNRISWDSKKGFTIPSYMISYAGMVFCEAKINDESYQSIMYIVVVVGYRIYDVVLSPSHGIELSVGEKLVLNCTARTELNVGIDFNWEYPSSKHQHKKLVFRDLKTQSGSEMKKFLSTLTIDGVTRSDQGLYTCAASSGLMTKKNSTFVRVHEK[human IgG1 Fc with changes not printed]
B4: PR1144 (R1D2-R2D3-linker-R2D2 (C162V)-R2D3 (D276Q)-Fc) (Fc fusion)
chain: SDTGRPFVEMYSEIPEIIHMTEGRELVIPCRVTSPNITVTLKKFPLDTLIPDGKRIIWDSRKGFIISNATYKEIGLLTCEATVNGHLYKTNYLTHRQTNTIIDVVLSPSHGIELSVGEKLVLNCTARTELNVGIDFNWEYPSSKHQHKKLVNRDLKTQSGSEMKKFLSTLTIDGVTRSDQGLYTCAASSGLMTKKNSTFVRVHEKGGGGSSPFIASVSDQHGVVYITENKNKTVVIPCLGSISNLNVSLVARYPEKRFVPDGNRISWDSKKGFTIPSYMISYAGMVFCEAKINDESYQSIMYIVVVVGYRIYDVVLSPSHGIELSVGEKLVLNCTARTELNVGIDFNWEYPSSKHQHKKLVNRQLKTQSGSEMKKFLSTLTIDGVTRSDQGLYTCAASSGLMTKKNSTFVRVHEK[human IgG1 Fc with changes not printed]
B5: PR1146 (R1D2-R2D3-linker-R2D2 (C162V)-R2D3 (L289Y)-Fc) (Fc fusion)
chain: SDTGRPFVEMYSEIPEIIHMTEGRELVIPCRVTSPNITVTLKKFPLDTLIPDGKRIIWDSRKGFIISNATYKEIGLLTCEATVNGHLYKTNYLTHRQTNTIIDVVLSPSHGIELSVGEKLVLNCTARTELNVGIDFNWEYPSSKHQHKKLVNRDLKTQSGSEMKKFLSTLTIDGVTRSDQGLYTCAASSGLMTKKNSTFVRVHEKGGGGSSPFIASVSDQHGVVYITENKNKTVVIPCLGSISNLNVSLVARYPEKRFVPDGNRISWDSKKGFTIPSYMISYAGMVFCEAKINDESYQSIMYIVVVVGYRIYDVVLSPSHGIELSVGEKLVLNCTARTELNVGIDFNWEYPSSKHQHKKLVNRDLKTQSGSEMKKFYSTLTIDGVTRSDQGLYTCAASSGLMTKKNSTFVRVHEK[human IgG1 Fc with changes not printed]
B6: PR1149 (R1D2-R2D3-linker-R2D2 (C162V/Y221S/R222K)-R2D3-Fc) (Fc fusion)
chain: SDTGRPFVEMYSEIPEIIHMTEGRELVIPCRVTSPNITVTLKKFPLDTLIPDGKRIIWDSRKGFIISNATYKEIGLLTCEATVNGHLYKTNYLTHRQTNTIIDVVLSPSHGIELSVGEKLVLNCTARTELNVGIDFNWEYPSSKHQHKKLVNRDLKTQSGSEMKKFLSTLTIDGVTRSDQGLYTCAASSGLMTKKNSTFVRVHEKGGGGSSPFIASVSDQHGVVYITENKNKTVVIPCLGSISNLNVSLVARYPEKRFVPDGNRISWDSKKGFTIPSYMISYAGMVFCEAKINDESYQSIMYIVVVVGSKIYDVVLSPSHGIELSVGEKLVLNCTARTELNVGIDFNWEYPSSKHQHKKLVNRDLKTQSGSEMKKFLSTLTIDGVTRSDQGLYTCAASSGLMTKKNSTFVRVHEK[human IgG1 Fc with changes not printed]
B7: PR1142 (R1D2-R2D3-linker-R2D2 (C162V)-R2D3 (N274I)-Fc) (Fc fusion)
chain: SDTGRPFVEMYSEIPEIIHMTEGRELVIPCRVTSPNITVTLKKFPLDTLIPDGKRIIWDSRKGFIISNATYKEIGLLTCEATVNGHLYKTNYLTHRQTNTIIDVVLSPSHGIELSVGEKLVLNCTARTELNVGIDFNWEYPSSKHQHKKLVNRDLKTQSGSEMKKFLSTLTIDGVTRSDQGLYTCAASSGLMTKKNSTFVRVHEKGGGGSSPFIASVSDQHGVVYITENKNKTVVIPCLGSISNLNVSLVARYPEKRFVPDGNRISWDSKKGFTIPSYMISYAGMVFCEAKINDESYQSIMYIVVVVGYRIYDVVLSPSHGIELSVGEKLVLNCTARTELNVGIDFNWEYPSSKHQHKKLVIRDLKTQSGSEMKKFLSTLTIDGVTRSDQGLYTCAASSGLMTKKNSTFVRVHEK[human IgG1 Fc with changes not printed]
B8: PR1147 (R1D2-R2D3-linker-R2D2 (C162V)-R2D3 (L313Y)-Fc) (Fc fusion)
chain: SDTGRPFVEMYSEIPEIIHMTEGRELVIPCRVTSPNITVTLKKFPLDTLIPDGKRIIWDSRKGFIISNATYKEIGLLTCEATVNGHLYKTNYLTHRQTNTIIDVVLSPSHGIELSVGEKLVLNCTARTELNVGIDFNWEYPSSKHQHKKLVNRDLKTQSGSEMKKFLSTLTIDGVTRSDQGLYTCAASSGLMTKKNSTFVRVHEKGGGGSSPFIASVSDQHGVVYITENKNKTVVIPCLGSISNLNVSLVARYPEKRFVPDGNRISWDSKKGFTIPSYMISYAGMVFCEAKINDESYQSIMYIVVVVGYRIYDVVLSPSHGIELSVGEKLVLNCTARTELNVGIDFNWEYPSSKHQHKKLVNRDLKTQSGSEMKKFLSTLTIDGVTRSDQGLYTCAASSGYMTKKNSTFVRVHEK[human IgG1 Fc with changes not printed]
B9: PR1150 (R1D2-R2D3-linker-R2D2 (C162V)-R2D3 (L313R)-Fc) (Fc fusion)
chain: SDTGRPFVEMYSEIPEIIHMTEGRELVIPCRVTSPNITVTLKKFPLDTLIPDGKRIIWDSRKGFIISNATYKEIGLLTCEATVNGHLYKTNYLTHRQTNTIIDVVLSPSHGIELSVGEKLVLNCTARTELNVGIDFNWEYPSSKHQHKKLVNRDLKTQSGSEMKKFLSTLTIDGVTRSDQGLYTCAASSGLMTKKNSTFVRVHEKGGGGSSPFIASVSDQHGVVYITENKNKTVVIPCLGSISNLNVSLVARYPEKRFVPDGNRISWDSKKGFTIPSYMISYAGMVFCEAKINDESYQSIMYIVVVVGYRIYDVVLSPSHGIELSVGEKLVLNCTARTELNVGIDFNWEYPSSKHQHKKLVNRDLKTQSGSEMKKFLSTLTIDGVTRSDQGLYTCAASSGRMTKKNSTFVRVHEK[human IgG1 Fc with changes not printed]

Biological target: T1, Human VEGF-A protein
Assay: cell-based or functional assay

| Binder | VEGF-A IC50; VEGF-A-induced NFAT-RE-luc2P/KDR HEK293 reporter gene expression [pM] |
| --- | --- |
| B1 | 1490 |
| B2 | 840 |
| B3 | 1140 |
| B4 | 510 |
| B5 | 980 |
| B6 | 820 |
| B7 | 990 |
| B8 | 1160 |
| B9 | 810 |
